Out of some 50,000 compounds screened, about 800 (1.6%) showed an effect of 50% or more. Some of the results follow.
Each molecule was assayed against Bcl-2-like protein 10 (Homo sapiens) (UniProt Q9HD36) (assay: Phenotype converters, Bcl-B/TR3 peptide binding displacement, primary biochemical FP (AID 1240;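 also: 0% = Bcl-B with tracer peptide and DMSO and 100% = tracer peptide lacking Bcl-B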)). Details: GST-Bcl-B / FITC-TR3 peptide fluorescence polarization; stronger effect = higher value; compound at 3.75 mg/L.
UniProt Q9HD36, sequence (Q9HD36 whole entry, looked up): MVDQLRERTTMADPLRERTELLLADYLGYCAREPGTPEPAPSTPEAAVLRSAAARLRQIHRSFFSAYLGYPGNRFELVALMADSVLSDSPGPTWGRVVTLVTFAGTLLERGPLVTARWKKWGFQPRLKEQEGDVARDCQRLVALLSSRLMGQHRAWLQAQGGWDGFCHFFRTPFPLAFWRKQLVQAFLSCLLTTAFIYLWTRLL

Row | SMILES | displacement
1 | COc1ccc(-c2cc(C(=O)Nc3cccc(Cl)c3)c3ccccc3n2)cc1 | 3.9%
2 | Cc1ccc(C(=O)Nc2sc(C)c(C)c2C(=O)OC(C)C)o1 | -1.1%
3 | O=C(Nc1ccc(Cl)c(Cl)c1)c1ccc(I)cc1 | 9.3%
4 | COC(=O)C1=C(C)N(c2ccccc2)C(=S)NC1c1ccc(OC)cc1 (stereo not given) | -13.4%
5 | C/C(=N\NC(=O)c1cc(-c2ccco2)[nH]n1)c1ccc(O)cc1 | -16.7%
6 | N#C/C(=C\Nc1ccccc1)c1nc(-c2ccccc2)cs1 | -4%
7 | CC(=O)c1ccc(NC(=O)c2ccc(Cc3ccc(C)cc3)o2)cc1 | 11.1%
8 | COc1ccc(/C=C2/C(=N)N3N=C(C(C)C)SC3=NC2=O)cc1OC | 133%
9 | Cc1ccccc1NC(=O)c1ccccc1NC(=O)C(O)(c1ccccc1)c1ccccc1 | -14.3%
10 | Cc1ccc(CN=C(N)Nc2nc(C)cc(C)n2)cc1 | -12%
11 | CC(NC(=O)C(=O)Nc1cccc(C(F)(F)F)c1)c1ccccc1 (stereo not given) | 10%
12 | CCOC(=O)C1=C(C)N=c2s/c(=C\c3ccc(N4CCOCC4)o3)c(=O)n2C1c1ccc(F)cc1 (stereo not given) | -27.1%
13 | Cc1ccc(NC(=O)CCOc2ccccc2)c(C)c1 | 2.3%
14 | CCOc1cc(/C=C2\C(=O)N(c3cccc(C(=O)O)c3)N=C2C)ccc1O | 14.6%
15 | CC1CCN(C(=O)c2ccccc2Cl)CC1 | -0.9%
16 | CCN(CC)S(=O)(=O)c1ccc(NC(=O)c2ccccc2C)cc1 | -7.5%
17 | O=C(NN1C(=O)/C(=C/c2cccc3ccccc23)SC1=S)c1cccc(O)c1 | -11.2%
18 | CCN(CC)c1ccc(C2NC(=S)NC(C)=C2C(=O)Nc2ccccc2)cc1 (stereo not given) | 31.6%
19 | Cc1ccc(C)c(OCCCCN2CCCC2)c1 | 0.1%
20 | C=CCc1c(C)nc2cc(-c3ccc(C)cc3)[nH]n2c1=O | 9.4%
21 | CCOc1ccc(N(CC(=O)Nc2cccc(Br)c2)S(C)(=O)=O)cc1 | -7.6%
22 | Cc1ccc(CNC(=O)c2ccc([N+](=O)[O-])cc2Cl)cc1 | 0.9%
23 | CCc1c(C)sc(NC(=O)c2ccc(F)cc2)c1C(=O)OC(C)C | -3.1%
24 | Cc1ccc(-n2nc3cc(C)c(NC(=O)c4cccc(C)c4)cc3n2)cc1 | 85.1%
25 | CC1=C(C(=O)Nc2ccccc2C)C(c2ccc3c4c(cccc24)CC3)NC(=S)N1 (stereo not given) | 10.6%
26 | CC(Oc1ccccc1)C(=O)Nc1cc(Cl)c(Cl)cc1Cl (stereo not given) | 16.3%
27 | O=c1oc2cc(OCc3ccc(Br)cc3)ccc2c2ccccc12 | -3.8%
28 | CCOC(=O)C(C)Oc1ccc2c(C)c(CC)c(=O)oc2c1 (stereo not given) | -3.1%
29 | Cc1cc2c(Nc3c([N+](=O)[O-])ccc4c3=NC3(CCCCC3)N=4)cccc2nn1 | 23.3%
30 | Cc1cccc(NC(=O)c2ccccc2NC(=O)c2ccccc2)n1 | -9.3%

Source: PubChem BioAssay AID1240 (Sanford-Burnham Center for Chemical Genomics, 2008)
